Data published in PubChem BioAssay AID1159614 (National Center for Advancing Translational Sciences (NCATS), 2016).
Out of some 45,000 compounds screened, about 65 (0.1%) were called active. The call rests on the fitted dose curve; in most records, active means well fitted activation curve with a large enough effect; inconclusive means small, poorly fitted or top-dose-only effect; inactive means no such curve, though single readings can be large or run the other way. This is one part of the list.

Target: Galactocerebrosidase (Homo sapiens) (UniProt P54803)
UniProt P54803, sequence (P54803 whole entry, looked up): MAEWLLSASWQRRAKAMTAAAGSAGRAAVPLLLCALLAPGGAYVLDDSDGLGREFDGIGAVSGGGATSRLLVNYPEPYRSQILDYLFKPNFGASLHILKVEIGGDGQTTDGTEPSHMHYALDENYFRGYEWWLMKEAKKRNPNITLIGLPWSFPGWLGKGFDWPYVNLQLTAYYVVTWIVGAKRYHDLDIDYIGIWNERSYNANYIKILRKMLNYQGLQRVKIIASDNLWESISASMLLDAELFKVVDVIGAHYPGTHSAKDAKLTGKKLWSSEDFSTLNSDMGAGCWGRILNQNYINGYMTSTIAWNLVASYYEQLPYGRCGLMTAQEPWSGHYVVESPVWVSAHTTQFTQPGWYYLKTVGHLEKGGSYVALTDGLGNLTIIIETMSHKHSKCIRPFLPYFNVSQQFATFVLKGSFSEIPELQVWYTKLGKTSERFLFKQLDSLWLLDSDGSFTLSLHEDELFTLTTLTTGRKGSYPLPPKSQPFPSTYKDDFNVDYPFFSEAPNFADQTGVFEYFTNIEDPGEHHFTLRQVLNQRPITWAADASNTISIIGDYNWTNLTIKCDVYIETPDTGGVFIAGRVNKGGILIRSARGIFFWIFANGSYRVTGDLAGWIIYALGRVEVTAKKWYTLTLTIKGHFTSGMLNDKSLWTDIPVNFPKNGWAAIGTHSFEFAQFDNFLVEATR
Assay: A Novel Cell-Based Assay to Identify Small Molecules for B -Galactocerebrosidase; further: 0% is about no effect; nearly all actives have a fitted effect of over 65% in size
Details: 145M-Twi-hGALC-G270D cells (Twitcher mouse brain line with human GALC G270D), HMU-beta-Gal fluorescence, 48 h; series mostly up to 57.5 µM; activation: at the top concentration
Outline: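 Live 145M-Twi cells (Twitcher mouse brain-derived, GALC-null) stably expressing human GALC-G270D, with a wild-type GALC line, were compound-treated. Residual GALC activity was then read as fluorescence from 0.1 mM final HMU-β-gal at pH 5.2; higher signal means activation.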

activation, inactive:
COC(=O)CC(=O)CSc1nc2cc(C(=O)NCC(C)C)ccc2c(=O)n1CCc1ccccc1 -5.22%
O=C(Nc1ccccc1C(F)(F)F)N1CC=C(c2c[nH]c3ccccc23)CC1 -0.534%
COc1ccc(-c2cc3nc(C)c(CCC(=O)NC(C)c4ccccc4)c(C)n3n2)c(OC)c1 (stereo not drawn) -27.1%
Cc1c(Cl)ccc2sc(N3CCN(C(=O)C4CC4)CC3)nc12 -15.2%
COc1ccc(-c2onc(C)c2C)cc1S(=O)(=O)N1CCN(c2cc(C)ccc2C)CC1 -5.13%
Cc1cccc(NC(=O)N2CCC(CN3CCCCCC3)CC2)c1C -11.5%
CC1CCN(S(=O)(=O)c2ccc3c(c2)CCN3C(=O)Nc2ccc(Br)cc2F)CC1 -9.49%
O=C1c2ccccc2S(=O)(=O)N1CCCCN1CCN(c2ncccn2)CC1 -7.78%
Cc1ccc(C2CCN(C(=O)c3cnn(-c4ccc(C)c(C)c4)c3C3CCN(C(=O)OC(C)(C)C)CC3)C2)cc1 (stereo not drawn) -1.08%
CN(C)CCCO[C@@H]1[C@H]2OC(C)(C)O[C@H]2O[C@@H]1C(O)CO (stereo partly drawn) -8.64%
CCc1ccccc1NC(=O)Cn1nc(N2CCN(c3ccccc3OC)CC2)ccc1=O -6.35%
COc1ccc(OC)c(NC(=O)CC(=O)Nc2ccc3nc4n(c(=O)c3c2)CCCCC4)c1 -15.1%
Cc1nc(SCC(=O)Nc2ccc(C(=O)O)cc2)n[nH]1 -20%
CCOc1ccccc1C(=O)N1CCC(c2nc3ccccc3o2)CC1 -10.7%
COc1ccc(C(=O)NCc2ccc(OCCN(C)C)cc2)cc1OC -19.9%
Cc1ccc(C)c(N2CCN(C(=O)CSCc3ccccc3Cl)CC2)c1 -1.5%
COc1cccc(NC(=O)CC2Nc3cc(C)c(C)cc3NC2=O)c1 (stereo not drawn) -4.57%
O=C(Nc1ncc([N+](=O)[O-])s1)c1cccs1 -5.59%
CC(C)(C)c1ccc(C(=O)Nc2onc3c2CCCC3)cc1 -14.7%
Cc1ccc(CNC(=O)CC2Oc3ccc(Cl)cc3NC2=O)cc1 (stereo not drawn) -2.28%
CCOc1ccc(NS(=O)(=O)c2ccc3c4c(cccc24)C(=O)N3)cc1 -8.79%
CC(C)(C)c1ccc(C(=O)NCC(c2ccc(Cl)cc2)N2CCOCC2)cc1 (stereo not drawn) -4.26%
Cc1ccc(CN(Cc2ccco2)C(=O)COc2ccc(C)c(C)c2)cc1 -0.194%
Cc1cccc(NC(=O)CCS(=O)(=O)c2cc(Br)cc3c2N(C(=O)C2CC2)CC3)c1 2.88%
CCS(=O)(=O)N1CC(=O)N(c2ccc(Cl)cc2)C(C)(C(=O)NC2CCCCC2)C1 (stereo not drawn) -5.55%
CCOc1cccc2cc(S(=O)(=O)c3ccccc3F)c(=O)oc12 -20.7%
Cc1ccc(CO)cc1Nc1ncnc2onc(-c3ccc(F)cc3)c12 -8.09%
CC(=O)Nc1ccccc1-c1nc2ccccc2n(CC(=O)Nc2cccc(C(F)(F)F)c2)c1=O -11.4%
